The values below come from PubChem BioAssay (NCI).

As usually defined, the GI50 is the concentration at which growth is held to half of that of the control. A word on the TGI: it is the concentration giving total growth inhibition. A higher TGI goes with less potent growth arrest.

The assay has as its system NCI-H322M lung. As to the kind of experiment: DTP human tumour cell line panel, 48 h.

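A five-concentration, 48-hour dose response in 96-well plates underlies each endpoint, interpolated linearly between surrounding concentrations. GI50 = concentration required for 50% inhibition of growth. TGI is the concentration that stops growth completely.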

On to `COc1cc2c(cc1OC)C(Sc1ccc(C)cc1)c1c(nc(N)c(C#N)c1N)O2` (configuration not stated), for which the GI50 was 1540 nM and the TGI is 2890 nM.
